For 27 compounds, NF-kB reporter and ISRE reporter results are on record in the supplement of paper PMC9174493.

Assay [1] concerns A549-Dual. The assay is described as follows: NF-kB reporter (SEAP) activity, viability-corrected, relative to vehicle (fold change vs vehicle); higher = more activation of STING-IRF / NF-kB immune response reporter. To be noted: 10 µM.
Assay [2] deals with A549-Dual. The assay can be described thus: ISRE reporter (Lucia luciferase) activity, viability-corrected, relative to vehicle (fold change vs vehicle); higher = more activation of STING-IRF / NF-kB immune response reporter. The conditions noted are these: 10 µM.

The structures appear in SMILES notation. This is one part of the list. Single values of this set are uncertain. Values with irradiation are relative to irradiated vehicle.
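For NF-kB reporter (SEAP) activity, viability-corrected, relative to vehicle in this document: viability correction based on the alamar blue assay, with concentrations leaving 10% survival or less dropped.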

On to `CCCCC(=O)N(Cc1ccc(-c2ccccc2-c2nn[nH]n2)cc1)C(C(=O)O)C(C)C` (stereo not drawn) [Valsartan], for which the NF-kB reporter in the assay on A549-Dual [1] (irradiation: 8 Gy/4 fr) was found to be 0.71; in the assay with A549-Dual [1] (irradiation: none), 1.12. Further, the ISRE reporter was determined as 0.517 with A549-Dual [2] (irradiation: 8 Gy/4 fr) and 0.669 in the assay on A549-Dual [2] (irradiation: none).
Consider `NCC1OC(OC2C(N)CC(N)C(OC3OC(CO)C(O)C(N)C3O)C2O)C(N)CC1O` (stereo not drawn) [Tobramycin], for which the figures for the NF-kB reporter in the assay with A549-Dual [1] (irradiation: 8 Gy/4 fr) and with A549-Dual [1] (irradiation: none) were 0.82 and 0.851, respectively. Moreover, the ISRE reporter in the assay with A549-Dual [2] (irradiation: 8 Gy/4 fr) turned out to be 0.873; in the assay with A549-Dual [2] (irradiation: none) it was 0.929.
The corresponding values for `CC1(C(=O)O)CCC2(C)CCC3(C)C(=CC(=O)C4C5(C)CCC(OC6OC(C(=O)[O-])C(O)C(O)C6OC6OC(C(=O)[O-])C(O)C(O)C6O)C(C)(C)C5CCC43C)C2C1.[K+].[K+]` (stereo not drawn) [Dipotassium glycyrrhizinate] are 1.03, 0.654, 1.05 and 0.606.
With `CCCCCCCCCCCCCC(=O)O` [Myristic Acid], the NF-kB reporter in the assay with A549-Dual [1] (irradiation: 8 Gy/4 fr) was determined as 1.01; with A549-Dual [1] (irradiation: none), 0.839. The ISRE reporter came out at 0.987 in the assay with A549-Dual [2] (irradiation: 8 Gy/4 fr) and 0.72 in the assay with A549-Dual [2] (irradiation: none).
For `O=c1c(OC2OC(CO)C(O)C(O)C2O)c(-c2ccc(O)c(O)c2)oc2cc(O)cc(O)c12` (stereo not drawn) [Hyperoside], the NF-kB reporter with A549-Dual [1] (irradiation: 8 Gy/4 fr) was 1.04; in the assay on A549-Dual [1] (irradiation: none), 0.777. Besides, the figures for the ISRE reporter with A549-Dual [2] (irradiation: 8 Gy/4 fr) and in the assay with A549-Dual [2] (irradiation: none) were 0.95 and 0.565, respectively.
As for `NC(=O)C1CCC2CN1C(=O)N2OS(=O)(=O)[O-].[Na+]` (stereo not drawn) [Avibactam sodium], the values for the NF-kB reporter in the assay on A549-Dual [1] (irradiation: 8 Gy/4 fr) and in the assay on A549-Dual [1] (irradiation: none) were 0.695 and 0.938, respectively. The figures for the ISRE reporter in the assay on A549-Dual [2] (irradiation: 8 Gy/4 fr) and in the assay with A549-Dual [2] (irradiation: none) were 0.629 and 0.823, respectively.
In the same order, the values of `CC(=O)NCC1CN(c2ccc(N3CCOCC3)c(F)c2)C(=O)O1` (stereo not drawn) [Linezolid] are 0.491, 0.943, 0.439 and 0.735.
`COc1ccc2ccc(=O)oc2c1` [7-Methoxycoumarin]: the NF-kB reporter in the assay with A549-Dual [1] (irradiation: 8 Gy/4 fr) came to 0.718; in the assay with A549-Dual [1] (irradiation: none), 0.568. In addition, the results for the ISRE reporter in the assay with A549-Dual [2] (irradiation: 8 Gy/4 fr) and in the assay on A549-Dual [2] (irradiation: none) were 0.72 and 0.399, respectively.
The corresponding values for `CC(=O)O.CC(N)C(=O)NCC(=O)NC1CSSCC(C(=O)O)NC(=O)C(CO)NC(=O)C(C(C)O)NC(=O)C(Cc2ccccc2)NC(=O)C(C(C)O)NC(=O)C(CCCCN)NC(=O)C(Cc2c[nH]c3ccccc23)NC(=O)C(Cc2ccccc2)NC(=O)C(Cc2ccccc2)NC(=O)C(CC(N)=O)NC(=O)C(CCCCN)NC1=O` (stereo not drawn) [Somatostatin Acetate] are 1.03, 0.839, 0.904 and 0.715.
The corresponding values for `CCc1nn(CCCN2CCN(c3cccc(Cl)c3)CC2)c(=O)n1CCOc1ccccc1.Cl` [Nefazodone hydrochloride] are 0.644, 0.535, 0.624 and 0.495.
In the case of `CSCC1CN(/N=C/c2ccc([N+](=O)[O-])o2)C(=O)O1` (stereo not drawn) [Nifuratel], the NF-kB reporter was found to be 0.675 in the assay on A549-Dual [1] (irradiation: 8 Gy/4 fr) and 1.01 in the assay on A549-Dual [1] (irradiation: none). In addition, the results for the ISRE reporter in the assay on A549-Dual [2] (irradiation: 8 Gy/4 fr) and in the assay with A549-Dual [2] (irradiation: none) were 0.455 and 0.942, respectively.
In the same order, the values of `CN1CCc2nc(C(=O)NC3CC(C(=O)N(C)C)CCC3NC(=O)C(=O)Nc3ccc(Cl)cn3)sc2C1.Cc1ccc(S(=O)(=O)O)cc1.O` (stereo not drawn) [Edoxaban] are 0.718, 0.822, 0.613 and 0.658.
For the compound `CO/N=C(\C(=O)NC1C(=O)N2C(C(=O)[O-])=C(CSc3nc(=O)c([O-])nn3C)CSC12)c1csc(N)n1.[Na+].[Na+]` (stereo not drawn) [Ceftriaxone Sodium Trihydrate], the NF-kB reporter with A549-Dual [1] (irradiation: 8 Gy/4 fr) turned out to be 0.792; in the assay with A549-Dual [1] (irradiation: none), 0.851. The ISRE reporter with A549-Dual [2] (irradiation: 8 Gy/4 fr) stood at 0.73; in the assay on A549-Dual [2] (irradiation: none) it was 0.793.
The corresponding values for `CCCCCC(C)N` (stereo not drawn) [2-Aminoheptane] are 1.52, 0.806, 1.57 and 0.838.
The corresponding values for `COc1cc(O)c(C(=O)Nc2nc(C(=O)NCCN(C(C)C)C(C)C)cs2)cc1OC.Cl.O.O.O` [Acotiamide hydrochloride] are 1.06, 1.23, 1.06 and 0.805.
In the same order, the values of `Nc1nc(=O)c2ncn(CCC(CO)CO)c2[nH]1` [Penciclovir] are 0.761, 0.862, 0.781 and 0.77.
On to `OCC(O)C(O)C(O)CO` (stereo not drawn) [Xylitol], for which the NF-kB reporter turned out to be 0.691 in the assay on A549-Dual [1] (irradiation: 8 Gy/4 fr) and 0.541 in the assay with A549-Dual [1] (irradiation: none). Further, the ISRE reporter in the assay on A549-Dual [2] (irradiation: 8 Gy/4 fr) was found to be 0.569; with A549-Dual [2] (irradiation: none), 0.39.
In the same order, the values of `N/N=c1\[nH][nH]/c(=N\N)c2ccccc12.O=S(=O)(O)O` [Dihydralazine sulphate] are 0.787, 0.882, 0.467 and 0.392.
As to `Cl.Nc1c2c(nc3ccccc13)CCCC2` [Tacrine HCl], the NF-kB reporter in the assay with A549-Dual [1] (irradiation: 8 Gy/4 fr) is 1.08; in the assay on A549-Dual [1] (irradiation: none) it was 0.811. Further, the ISRE reporter came out at 0.731 in the assay with A549-Dual [2] (irradiation: 8 Gy/4 fr) and 0.544 in the assay with A549-Dual [2] (irradiation: none).
The corresponding values for `CC(C)CCCC(C)N.Cl` (stereo not drawn) [Octodrine (2-Amino-6-methylheptan)] are 1.02, 0.617, 0.983 and 0.466.
In the case of `c1ccc2[nH]c(-c3cscn3)nc2c1` [Thiabendazole], the NF-kB reporter in the assay with A549-Dual [1] (irradiation: 8 Gy/4 fr) amounted to 1.18; in the assay with A549-Dual [1] (irradiation: none), 1.36. The values for the ISRE reporter in the assay on A549-Dual [2] (irradiation: 8 Gy/4 fr) and in the assay with A549-Dual [2] (irradiation: none) were 1.39 and 1.03, respectively.
In the same order, the values of `CC(C)=C1CCC(C)CC1=O` (stereo not drawn) [Pulegone] are 0.598, 0.983, 0.0545 and 0.379.
As to `CCCCCCCC(=O)NC(CN1CCCC1)C(O)c1ccc2c(c1)OCCO2` (stereo not drawn) [Eliglustat], the NF-kB reporter is 1.34 in the assay on A549-Dual [1] (irradiation: 8 Gy/4 fr) and 0.743 in the assay with A549-Dual [1] (irradiation: none). In addition, the figures for the ISRE reporter with A549-Dual [2] (irradiation: 8 Gy/4 fr) and in the assay with A549-Dual [2] (irradiation: none) were 1.9 and 1.19, respectively.
`CCC(C)CC(C)CCCCCCCCC(=O)NC1CC(O)C(O)NC(=O)C2C(O)CCN2C(=O)C(C(O)CC(N)=O)NC(=O)C(C(O)C(O)c2ccc(O)cc2)NC(=O)C2CC(O)CN2C(=O)C(C(C)O)NC1=O` (stereo not drawn) [Pneumocandin B0]: the NF-kB reporter with A549-Dual [1] (irradiation: 8 Gy/4 fr) is 0.73; in the assay on A549-Dual [1] (irradiation: none), 0.901. For the same compound, the ISRE reporter in the assay on A549-Dual [2] (irradiation: 8 Gy/4 fr) came out at 0.772; with A549-Dual [2] (irradiation: none), 0.804.
In the same order, the values of `CCCC1CC(C(=O)NC(C(C)Cl)C2OC(SC)C(O)C(O)C2O)N(C)C1` (stereo not drawn) [Clindamycin] are 0.756, 0.834, 0.698 and 0.625.
The corresponding values for `CC(C)(C)NCC(O)c1ccc(O)c(CO)c1.O=S(=O)(O)O` (stereo not drawn) [Salbutamol Sulfate] are 1.02, 1.11, 1.13 and 0.849.
For `Cc1ccc(C)c(OCCCC(C)(C)C(=O)O)c1` [Gemfibrozil], the figures for the NF-kB reporter in the assay with A549-Dual [1] (irradiation: 8 Gy/4 fr) and with A549-Dual [1] (irradiation: none) were 0.999 and 0.927, respectively. The ISRE reporter with A549-Dual [2] (irradiation: 8 Gy/4 fr) was determined as 1.28; in the assay on A549-Dual [2] (irradiation: none), 0.954.
